Assay results taken from paper PMC8425901.
No constants are given. Whether binding was seen depends on the method and setting. For part of these data: In cells and extracts the contact can be indirect. Some results given as binding are weak or reduced against the parent protein; the word gives no strength.

By UniProt entry, the sequences of proteins in these tests, tags left out. Residues count along the entry.
UniProt Q9P289: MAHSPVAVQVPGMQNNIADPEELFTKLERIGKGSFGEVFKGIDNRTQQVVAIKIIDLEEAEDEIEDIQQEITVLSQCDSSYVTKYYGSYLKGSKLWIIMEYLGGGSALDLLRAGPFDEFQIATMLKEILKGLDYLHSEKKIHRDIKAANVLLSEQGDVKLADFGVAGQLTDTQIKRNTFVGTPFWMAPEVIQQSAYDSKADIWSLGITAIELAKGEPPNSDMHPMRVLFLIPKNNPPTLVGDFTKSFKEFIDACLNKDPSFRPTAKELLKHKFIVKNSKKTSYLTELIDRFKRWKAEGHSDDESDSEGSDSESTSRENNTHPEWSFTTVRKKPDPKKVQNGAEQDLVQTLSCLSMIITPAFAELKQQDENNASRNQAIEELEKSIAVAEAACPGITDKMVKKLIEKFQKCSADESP
UniProt P49840: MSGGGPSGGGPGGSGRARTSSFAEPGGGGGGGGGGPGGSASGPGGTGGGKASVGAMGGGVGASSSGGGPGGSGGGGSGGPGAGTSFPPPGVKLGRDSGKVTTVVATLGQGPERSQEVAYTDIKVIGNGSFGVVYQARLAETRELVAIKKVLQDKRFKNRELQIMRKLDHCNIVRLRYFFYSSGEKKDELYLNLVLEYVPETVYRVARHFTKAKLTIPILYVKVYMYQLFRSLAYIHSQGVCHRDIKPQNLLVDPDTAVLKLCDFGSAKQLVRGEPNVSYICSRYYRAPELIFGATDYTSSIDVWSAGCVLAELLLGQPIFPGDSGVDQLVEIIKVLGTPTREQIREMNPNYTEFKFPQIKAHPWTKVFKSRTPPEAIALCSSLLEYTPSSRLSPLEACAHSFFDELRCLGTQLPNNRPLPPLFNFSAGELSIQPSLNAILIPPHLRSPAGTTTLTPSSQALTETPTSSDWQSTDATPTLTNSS
UniProt P49841: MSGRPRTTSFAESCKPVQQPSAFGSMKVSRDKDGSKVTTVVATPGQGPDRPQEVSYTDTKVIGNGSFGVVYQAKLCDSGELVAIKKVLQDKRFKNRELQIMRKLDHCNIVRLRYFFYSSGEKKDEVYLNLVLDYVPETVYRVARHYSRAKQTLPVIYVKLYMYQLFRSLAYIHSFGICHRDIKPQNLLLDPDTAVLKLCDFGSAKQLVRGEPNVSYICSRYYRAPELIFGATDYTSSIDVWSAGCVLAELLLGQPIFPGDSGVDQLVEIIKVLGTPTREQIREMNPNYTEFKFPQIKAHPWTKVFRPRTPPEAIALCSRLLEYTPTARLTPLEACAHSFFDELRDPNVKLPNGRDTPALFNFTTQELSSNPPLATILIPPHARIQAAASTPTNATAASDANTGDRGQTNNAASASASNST
UniProt P35222: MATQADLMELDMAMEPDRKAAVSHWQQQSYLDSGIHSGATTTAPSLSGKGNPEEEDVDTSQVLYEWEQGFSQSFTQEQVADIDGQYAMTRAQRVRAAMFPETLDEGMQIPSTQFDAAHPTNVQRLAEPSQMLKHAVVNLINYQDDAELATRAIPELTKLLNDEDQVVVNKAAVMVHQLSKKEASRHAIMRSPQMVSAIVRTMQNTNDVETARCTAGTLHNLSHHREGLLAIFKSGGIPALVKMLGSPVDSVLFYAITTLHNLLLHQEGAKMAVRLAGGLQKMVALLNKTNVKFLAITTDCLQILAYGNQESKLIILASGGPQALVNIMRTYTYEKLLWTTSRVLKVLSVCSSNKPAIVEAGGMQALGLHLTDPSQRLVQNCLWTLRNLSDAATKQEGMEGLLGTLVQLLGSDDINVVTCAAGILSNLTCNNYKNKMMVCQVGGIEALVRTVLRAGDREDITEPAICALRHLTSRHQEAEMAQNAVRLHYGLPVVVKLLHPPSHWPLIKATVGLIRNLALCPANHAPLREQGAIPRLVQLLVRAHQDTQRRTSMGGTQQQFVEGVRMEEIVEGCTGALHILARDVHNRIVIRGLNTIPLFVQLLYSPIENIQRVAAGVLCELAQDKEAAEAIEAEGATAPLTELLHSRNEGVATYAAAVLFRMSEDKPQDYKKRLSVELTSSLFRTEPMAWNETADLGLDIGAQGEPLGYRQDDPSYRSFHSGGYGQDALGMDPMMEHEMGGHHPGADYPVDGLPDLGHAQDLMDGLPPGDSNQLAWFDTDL
UniProt O75197, residues 32-1615: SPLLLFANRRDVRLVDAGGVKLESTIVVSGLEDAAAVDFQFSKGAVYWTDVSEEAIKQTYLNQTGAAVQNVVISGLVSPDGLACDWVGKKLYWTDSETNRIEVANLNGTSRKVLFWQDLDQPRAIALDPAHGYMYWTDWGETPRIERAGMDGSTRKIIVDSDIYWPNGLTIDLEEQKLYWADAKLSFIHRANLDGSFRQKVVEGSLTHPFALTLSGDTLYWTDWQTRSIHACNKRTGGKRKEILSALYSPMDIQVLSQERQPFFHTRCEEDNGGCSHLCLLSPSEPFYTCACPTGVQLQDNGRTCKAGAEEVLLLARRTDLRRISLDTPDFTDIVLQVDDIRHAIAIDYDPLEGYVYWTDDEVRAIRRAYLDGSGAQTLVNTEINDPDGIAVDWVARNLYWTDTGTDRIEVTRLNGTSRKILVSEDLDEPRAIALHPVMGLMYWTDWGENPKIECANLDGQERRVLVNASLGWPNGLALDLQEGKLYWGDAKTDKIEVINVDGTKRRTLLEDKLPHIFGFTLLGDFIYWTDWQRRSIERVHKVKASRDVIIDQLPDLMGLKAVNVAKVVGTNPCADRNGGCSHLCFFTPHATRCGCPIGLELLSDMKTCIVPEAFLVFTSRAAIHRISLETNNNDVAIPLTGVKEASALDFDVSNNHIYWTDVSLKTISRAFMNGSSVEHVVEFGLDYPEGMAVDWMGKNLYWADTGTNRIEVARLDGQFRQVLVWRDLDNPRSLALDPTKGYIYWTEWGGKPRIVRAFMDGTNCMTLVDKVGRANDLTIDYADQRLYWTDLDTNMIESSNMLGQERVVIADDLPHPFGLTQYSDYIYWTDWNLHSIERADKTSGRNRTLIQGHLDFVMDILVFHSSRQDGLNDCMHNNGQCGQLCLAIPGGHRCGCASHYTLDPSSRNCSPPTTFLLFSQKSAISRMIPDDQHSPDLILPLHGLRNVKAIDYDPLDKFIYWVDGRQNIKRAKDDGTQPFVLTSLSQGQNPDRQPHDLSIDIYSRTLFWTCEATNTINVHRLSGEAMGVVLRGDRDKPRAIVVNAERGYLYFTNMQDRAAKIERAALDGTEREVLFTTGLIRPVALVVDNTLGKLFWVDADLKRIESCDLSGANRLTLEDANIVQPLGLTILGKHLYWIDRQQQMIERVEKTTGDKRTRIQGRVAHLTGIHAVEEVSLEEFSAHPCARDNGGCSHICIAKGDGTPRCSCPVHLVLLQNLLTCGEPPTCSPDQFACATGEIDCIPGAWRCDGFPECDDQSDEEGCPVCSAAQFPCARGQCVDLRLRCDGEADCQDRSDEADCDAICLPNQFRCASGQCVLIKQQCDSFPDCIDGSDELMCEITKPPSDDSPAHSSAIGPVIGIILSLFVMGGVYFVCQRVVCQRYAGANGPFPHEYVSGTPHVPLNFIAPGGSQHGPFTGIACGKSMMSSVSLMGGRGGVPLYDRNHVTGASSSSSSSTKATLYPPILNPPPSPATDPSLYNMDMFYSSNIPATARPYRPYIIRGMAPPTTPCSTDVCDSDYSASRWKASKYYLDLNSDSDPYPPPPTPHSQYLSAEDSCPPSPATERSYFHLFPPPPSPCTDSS
UniProt Q9Y297: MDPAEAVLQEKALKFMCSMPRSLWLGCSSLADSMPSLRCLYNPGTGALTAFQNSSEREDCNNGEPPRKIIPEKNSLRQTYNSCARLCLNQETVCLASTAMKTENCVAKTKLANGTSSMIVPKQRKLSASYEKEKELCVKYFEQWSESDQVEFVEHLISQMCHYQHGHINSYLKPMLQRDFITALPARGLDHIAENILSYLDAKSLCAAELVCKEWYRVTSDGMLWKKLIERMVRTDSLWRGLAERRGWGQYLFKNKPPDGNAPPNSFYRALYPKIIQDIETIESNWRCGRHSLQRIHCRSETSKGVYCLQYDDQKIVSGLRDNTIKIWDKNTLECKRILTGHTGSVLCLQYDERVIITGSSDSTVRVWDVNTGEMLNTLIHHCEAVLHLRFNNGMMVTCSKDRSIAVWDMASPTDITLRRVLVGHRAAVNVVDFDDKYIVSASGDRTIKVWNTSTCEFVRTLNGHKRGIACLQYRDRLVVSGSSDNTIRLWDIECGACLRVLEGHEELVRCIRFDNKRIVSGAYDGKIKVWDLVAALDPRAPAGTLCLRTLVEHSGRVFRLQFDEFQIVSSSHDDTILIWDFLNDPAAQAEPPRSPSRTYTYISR

Legend:
[1] = target: MST4 (endogenous) (human (endogenous in HEK293FT)) (UniProt Q9P289); test: co-IP; endogenous proteins in HEK293FT cells, with and without Wnt3a treatment; IP buffer 20 mM Tris-HCl pH 7.5, 100 mM NaCl, 0.5% NP-40, 1 mM EDTA; overnight at 4 °C
[2] = target: maltose binding protein (MBP)-tagged MST4 (UniProt Q9P289); test: pull-down; MBP-tagged MST4 coupled onto amylose resin beads, incubated with His-tagged β-catenin; 20 mM HEPES pH 7.5, 100 mM NaCl, 1 mM dithiothreitol, 4 °C, 1 h; eluted with 20 mM maltose; both purified

Substance | binding [1] | binding [2]
GSK3α (endogenous) (from UniProt P49840 1-483) (enzyme) | binds | 
GSK3β (endogenous) (from UniProt P49841 1-420) (enzyme) | binds | 
His-tagged β-catenin (from UniProt P35222 1-781) |  | binds
LRP5 (endogenous) (from UniProt O75197 32-1615) (receptor) | binds | 
β-TrCP (endogenous) (from UniProt Q9Y297 1-605) | no binding | 
β-catenin (endogenous) (from UniProt P35222 1-781) | binds | 
